# According to publication PMC9911399, “Two distinct binding modes provide the RNA-binding protein RbFox with extraordinary sequence specificity”:
# Changes are numbered by the printed parent chain; changes in the protein carry UniProt numbers. This is one part of the list.
# T1: RBFOX1 RRM RbFoxmut (Fox-RRM*) (Homo sapiens, UniProt Q9NWB1 109-208, R118D;E147R;N151S;E152T)
# T1 sequence: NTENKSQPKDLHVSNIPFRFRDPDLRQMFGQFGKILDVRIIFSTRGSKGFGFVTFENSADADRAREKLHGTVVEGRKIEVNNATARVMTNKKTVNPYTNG
# B1: GUCAAUG (DNA:RNA)
# RNA: GGGAGACCGGAAUUCAGAUUGUCCGUCAAUGUUAAAUCCCGUCGUAGCCACCA
# DNA 1: CAATCTGAATTCCGGTCTCCC
# DNA 2: TGGTGGCTACGACGGGATT
# B2: GUGCAUU (DNA:RNA)
# RNA: B1 RNA with C27G, A28C, G31U
# DNA 1: CAATCTGAATTCCGGTCTCCC
# DNA 2: TGGTGGCTACGACGGGATT
# B3: UCAGGCG (DNA:RNA)
# RNA: B1 RNA with G25U, U26C, C27A, A28G, A29G, U30C
# DNA 1: CAATCTGAATTCCGGTCTCCC
# DNA 2: TGGTGGCTACGACGGGATT
# B4: AGGUCAA (DNA:RNA)
# RNA: GGGAGACCGGAAUUCAGAUUGUCCAGGUCAAUUAAAUCCCGUCGUAGCCACCA
# DNA 1: CAATCTGAATTCCGGTCTCCC
# DNA 2: TGGTGGCTACGACGGGATT
# B5: UGCAGUG (DNA:RNA)
# RNA: B1 RNA with G25U, U26G, A29G
# DNA 1: CAATCTGAATTCCGGTCTCCC
# DNA 2: TGGTGGCTACGACGGGATT
# B6: CUCGUUU (DNA:RNA)
# RNA: B1 RNA with G25C, A28G, A29U, G31U
# DNA 1: CAATCTGAATTCCGGTCTCCC
# DNA 2: TGGTGGCTACGACGGGATT
# B7: CUCUAAG (DNA:RNA)
# RNA: B1 RNA with G25C, A28U, U30A
# DNA 1: CAATCTGAATTCCGGTCTCCC
# DNA 2: TGGTGGCTACGACGGGATT
# B8: UCAGGUC (DNA:RNA)
# RNA: B1 RNA with G25U, U26C, C27A, A28G, A29G, G31C
# DNA 1: CAATCTGAATTCCGGTCTCCC
# DNA 2: TGGTGGCTACGACGGGATT
# B9: UGUACUU (DNA:RNA)
# RNA: B4 RNA with A25U, G27U, U28A, A30U, A31U
# DNA 1: CAATCTGAATTCCGGTCTCCC
# DNA 2: TGGTGGCTACGACGGGATT
# B10: CUCCAUC (DNA:RNA)
# RNA: B1 RNA with G25C, A28C, G31C
# DNA 1: CAATCTGAATTCCGGTCTCCC
# DNA 2: TGGTGGCTACGACGGGATT
# B11: UUCAUGG (DNA:RNA)
# RNA: B1 RNA with G25U, A29U, U30G
# DNA 1: CAATCTGAATTCCGGTCTCCC
# DNA 2: TGGTGGCTACGACGGGATT
# B12: UUUCCGC (DNA:RNA)
# RNA: B4 RNA with A25U, G26U, G27U, U28C, A30G, A31C
# DNA 1: CAATCTGAATTCCGGTCTCCC
# DNA 2: TGGTGGCTACGACGGGATT
# B13: AACCUUC (DNA:RNA)
# RNA: B1 RNA with G25A, U26A, A28C, A29U, G31C
# DNA 1: CAATCTGAATTCCGGTCTCCC
# DNA 2: TGGTGGCTACGACGGGATT
# B14: ACUCGAG (DNA:RNA)
# RNA: B4 RNA with G26C, G27U, U28C, C29G, A31G
# DNA 1: CAATCTGAATTCCGGTCTCCC
# DNA 2: TGGTGGCTACGACGGGATT
# B15: UCAUCAG (DNA:RNA)
# RNA: B4 RNA with A25U, G26C, G27A, A31G
# DNA 1: CAATCTGAATTCCGGTCTCCC
# DNA 2: TGGTGGCTACGACGGGATT
# B16: UGGCGGC (DNA:RNA)
# RNA: B4 RNA with A25U, U28C, C29G, A30G, A31C
# DNA 1: CAATCTGAATTCCGGTCTCCC
# DNA 2: TGGTGGCTACGACGGGATT
# B17: CGCCCCA (DNA:RNA)
# RNA: B4 RNA with A25C, G27C, U28C, A30C
# DNA 1: CAATCTGAATTCCGGTCTCCC
# DNA 2: TGGTGGCTACGACGGGATT
# B18: CCAUACU (DNA:RNA)
# RNA: B4 RNA with A25C, G26C, G27A, C29A, A30C, A31U
# DNA 1: CAATCTGAATTCCGGTCTCCC
# DNA 2: TGGTGGCTACGACGGGATT
# B19: GCCCCAA (DNA:RNA)
# RNA: B4 RNA with A25G, G26C, G27C, U28C
# DNA 1: CAATCTGAATTCCGGTCTCCC
# DNA 2: TGGTGGCTACGACGGGATT
# B20: AAGGUGA (DNA:RNA)
# RNA: B4 RNA with G26A, U28G, C29U, A30G
# DNA 1: CAATCTGAATTCCGGTCTCCC
# DNA 2: TGGTGGCTACGACGGGATT
# Biological target: T1, RBFOX1 RRM RbFoxmut (Fox-RRM*)
# Experiment: EMSA; HiTS-Eq, 1 nM pool, 10 min; buffer printed only for the single-RNA assays: 10 mM Tris pH 7.5, 150 mM NaCl, 3.4 mM EDTA, 0.001% NP-40, 30 C
# Conditions: tags: His6 N-terminal (pET28a); label: 5' 32P
# Procedure, shortened: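 Purified RbFox RRM (wild type or mutant) was equilibrated for 10 min in 50 µL with 1 nM of a 5′-radiolabelled pool of RNA with 7 randomized nucleotides, its flanks annealed to DNA oligonucleotides, across increasing protein concentrations. Free RNA was separated by 8% native PAGE, excised, reverse-transcribed, PCR-barcoded and sequenced on an Illumina HiSeq 2500. Relative association constants came from read-count changes of each variant against the control reaction, normalised to the cognate motif.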
row,Binder,binding signal
1,B1,0.111 KA relative to UGCAUGU
2,B2,0.108 KA relative to UGCAUGU
3,B3,0.128 KA relative to UGCAUGU
4,B4,0.0898 KA relative to UGCAUGU
5,B5,0.19 KA relative to UGCAUGU
6,B6,0.122 KA relative to UGCAUGU
7,B7,0.123 KA relative to UGCAUGU
8,B8,0.116 KA relative to UGCAUGU
9,B9,0.0859 KA relative to UGCAUGU
10,B10,0.0909 KA relative to UGCAUGU
11,B11,0.098 KA relative to UGCAUGU
12,B12,0.108 KA relative to UGCAUGU
13,B13,0.0273 KA relative to UGCAUGU
14,B14,0.132 KA relative to UGCAUGU
15,B15,0.0892 KA relative to UGCAUGU
16,B16,0.0959 KA relative to UGCAUGU
17,B17,0.0612 KA relative to UGCAUGU
18,B18,0.0898 KA relative to UGCAUGU
19,B19,0.0964 KA relative to UGCAUGU
20,B20,0.0987 KA relative to UGCAUGU
